Here are results for 167 variants from the RNAGym collection of RNA variant scans (doi:10.1073/pnas.2313332121).

Variants at the background level are over-represented here. Some results are limits rather than exact numbers.

Sequences and labels used below:
B1: TPR 5TU (parent)
chain: GGAUCUUCUCGAUCUAACAAAAAAGACAAAUCUGCCACAAAGCUUGAGAGCAUCUUCGGAUGCAGAGGCGGCAGCCUUCGGUGGCGCGAUAGCGCCAACGUUCUCAACUAUGACACGCAAAACGCGUGCUCCGUUGAAUGGAGUUUAUCAUG

The variants in the series derive from B1. In words: polymerase ribozyme fitness, log enrichment relative to wild type (log ratio); higher = more active; in vitro selection for triplet polymerase activity. In short, it runs like this:
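Streptavidin-bead capture of gel-excised extended constructs, followed by RT-PCR, closed a single triplicate in vitro selection round. That round began by annealing PCR-built, transcribed mutant libraries of each subunit of a heterodimeric triplet polymerase ribozyme with a biotinylated primer, the partner subunit and triplets, then incubating them frozen at −7 °C. After Illumina sequencing of inputs and outputs, genotypes needed ≥10 input reads and ≥1 read per output. Fitness is the base-2 logarithm of genotype enrichment over wild-type enrichment, using inverse-variance-weighted replicate averages.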
Turning to C76U C85U U101C U145G, the “polymerase ribozyme fitness (log ratio)” value is -0.2. The same measure for C76A A89U G141U: -2.94; for C79G C85A: at most -4.2; for C76G U146G U148G: at most -4.2. With C76U C79A C93U C116A C118A the figure was at most -4.2.

As to C75G A91C G92U C95U U101G A113G, the “polymerase ribozyme fitness (log ratio)” value was at most -4.2. With C76G A91C the figure was at most -4.2; with C75U G80C A138C, at most -4.2; with C75U A89C C95U, -0.65. With C76G G92U C105A G141C the figure was at most -4.2; with C79A G88A A113U, at most -4.2. With C75U C85U G86C the figure was -1.49. With U78A G133A U139G, the “polymerase ribozyme fitness (log ratio)” value was at most -4.2. With C79U A91U C125A the figure was at most -4.2. Consider C79A G83C, for which the “polymerase ribozyme fitness (log ratio)” value was at most -4.2. With C79A C93G the figure was at most -4.2; with C75G G83A A98U U139A U145C, at most -4.2; with C76A C96U A121C, 0.584. The same measure for C76G G88C U104A A137G A138G: at most -4.2; for C76A U90C U146G: at most -4.2. The same measure for U77G U82A A110C G136A A137U A138U: at most -4.2; for U77A G80C G141A: at most -4.2. As to U78C A142U G143U U146C, the “polymerase ribozyme fitness (log ratio)” value is at most -4.2. The same measure for C75G A97U: at most -4.2. The same measure for C76U U78A A107U G126A: at most -4.2. The same measure for C76A U145G: -0.329; for C76A C85U G100C U104G A115U: at most -4.2; for U77G A91G: at most -4.2. Take C76G C96U C125G A150C: the “polymerase ribozyme fitness (log ratio)” value was at most -4.2. The same measure for U78C C103G A107U: at most -4.2; for U77G G80A: at most -4.2; for C79A A115C G143C U148C: at most -4.2. As to C79A G86C G136U A138U, the “polymerase ribozyme fitness (log ratio)” value is at most -4.2. With C79G U82C C87U the figure was at most -4.2; with C75U G81A C85A C95G A98U, -3.71; with C76A C96U G140U, -3.67. The same measure for C76A G83A C103A: at most -4.2; for C79G C85A A138G U148A: at most -4.2.

For C79G G84U C132U, the “polymerase ribozyme fitness (log ratio)” value was at most -4.2. Turning to C76A G140C, the “polymerase ribozyme fitness (log ratio)” value is -3.36. With U78G U109C G140C the figure was at most -4.2; with C79G G86A, at most -4.2; with C76U G84A A110U C118A G140A, at most -4.2. With C76U G81A C99U the figure was -0.44. With C76U G84A C85A C129U U134C the figure was at most -4.2; with C76G C87G U90A A121C A122U, at most -4.2. In the case of C75U G86A C93U A110G, the “polymerase ribozyme fitness (log ratio)” value was at most -4.2. With U77C C116U the figure was -3.64; with C76G A120G, at most -4.2; with C76U C87G C125G, at most -4.2. The same measure for C75G A98U C99U C103G C123A: at most -4.2; for U78G C87A A98U: at most -4.2. The same measure for C76U G88A C108G A115U G143C U146A: at most -4.2; for C75U A91G A147C: -3.68; for C76G C105G: at most -4.2.

C79A C93A U134A U135A: the “polymerase ribozyme fitness (log ratio)” value was at most -4.2. With C75G U82G A91C the figure was at most -4.2.

C75G U127A: the “polymerase ribozyme fitness (log ratio)” value is at most -4.2. The same measure for C75G U77G G80C A97U G124A: at most -4.2. The same measure for C75U G84U U134C: -1.39; for C76G A91U A106G U135A: at most -4.2. With C76A C85G the figure was -3.53.

Regarding C76A C85U, the “polymerase ribozyme fitness (log ratio)” value is -0.443. For C76G G143U G152U, the “polymerase ribozyme fitness (log ratio)” value is at most -4.2. U77A C93U: the “polymerase ribozyme fitness (log ratio)” value is at most -4.2. With U78A G92A U101C C129A A137C U148A C149U the figure was at most -4.2. With C75U G83A G88A U101C A120G G124A the figure was at most -4.2. Turning to C76G G88A C93G G100U, the “polymerase ribozyme fitness (log ratio)” value is at most -4.2.

For the variant C75U A91U C118G A138U, the “polymerase ribozyme fitness (log ratio)” value is at most -4.2. The same measure for U78C G92A: -3.78; for C76A A137C U144A: at most -4.2.

Turning to C75G C85U U101C, the “polymerase ribozyme fitness (log ratio)” value was at most -4.2.

C75G A106C C108A: the “polymerase ribozyme fitness (log ratio)” value was at most -4.2. With U77G C93U G117C the figure was at most -4.2; with U77A G83U C85A G94C G124A A147U, at most -4.2.

Take C76U U82G G83A C105A U134C U146A U148G: the “polymerase ribozyme fitness (log ratio)” value is at most -4.2. The same measure for C79A G88C C118A U139C A142U: at most -4.2; for C75U G92A C108A C132U: at most -4.2; for C79A C96U U101G: at most -4.2. With C76U C103A U130C the figure was at most -4.2; with U77A G84A U102C U144C U148A C149G, at most -4.2. The same measure for U78G U90G G128U C131G: at most -4.2; for C76G G140U U151G: at most -4.2; for C79G U134C U146C: -4.11. In the case of C76A A121G, the “polymerase ribozyme fitness (log ratio)” value is 0.0173.

Consider U77G C96G C131U A138C U148G, for which the “polymerase ribozyme fitness (log ratio)” value was at most -4.2.

Regarding C79A C99G, the “polymerase ribozyme fitness (log ratio)” value is at most -4.2. C76U G88U: the “polymerase ribozyme fitness (log ratio)” value is at most -4.2. The same measure for U77A A107U: at most -4.2. U77A A107G: the “polymerase ribozyme fitness (log ratio)” value was at most -4.2.

On to C75G G83A A91G G92A C93G C96A U111G C132U G141A A147U, for which the “polymerase ribozyme fitness (log ratio)” value is at most -4.2. With C79G A91G the figure was at most -4.2; with U77A C93A A113C, at most -4.2; with C76U C96U A97G C99U C103G, at most -4.2. On to C76U G94A C99G G126C G141A, for which the “polymerase ribozyme fitness (log ratio)” value was at most -4.2.

As for C75U G84U U101C, the “polymerase ribozyme fitness (log ratio)” value is -1.45. C75U G84U U101C A120U U151G: the “polymerase ribozyme fitness (log ratio)” value was at most -4.2. In the case of C76G C95U A97U U145G A150C, the “polymerase ribozyme fitness (log ratio)” value was at most -4.2.

Regarding C79A G84C C87U, the “polymerase ribozyme fitness (log ratio)” value was at most -4.2. With C75G U78C C99U C132G the figure was at most -4.2; with U77A C87U A119U C125G U139G, at most -4.2. With U78G G141A the figure was at most -4.2; with U77C C85A C108A U111C A113U, at most -4.2; with C75U C85U C93U U109G C149U, at most -4.2. The same measure for C75U C87U C93G A119G C125U G141C: at most -4.2. As for C76U A115C, the “polymerase ribozyme fitness (log ratio)” value was -0.614. The same measure for C75G G84A G124U: at most -4.2; for C76A A89C: -0.238. With C75G C76A C95A G128A the figure was at most -4.2; with C76U A137G, -0.882. With C75G C85A C105G U130G U146G the figure was at most -4.2. As for C75U G86A C87U G133A, the “polymerase ribozyme fitness (log ratio)” value was at most -4.2. The same measure for U77C A110C C114U G124U: at most -4.2; for C76U U139G: -0.649; for C75U G83U C129G U144G: at most -4.2.

Consider C76U U144A, for which the “polymerase ribozyme fitness (log ratio)” value is -1.08. With C79A G86U A137C A150G the figure was at most -4.2; with C79A G83U U134G, at most -4.2; with C76A C95U, 0.252. With U77A U134G the figure was at most -4.2; with C75G U90C C96G U127A, at most -4.2. For C79A G133A G140C C149U, the “polymerase ribozyme fitness (log ratio)” value was at most -4.2.

On to C76A C85A G143U, for which the “polymerase ribozyme fitness (log ratio)” value was at most -4.2. The same measure for C76G C96A A122U: at most -4.2; for C75G G92U C105G: at most -4.2; for C79A G88U C108G G136U: at most -4.2. With U78C A120U G133U G141A the figure was -3.21; with U77A C85U G92C C99G U104C G140C, at most -4.2. Turning to C76U G84U U109C U130G G140A, the “polymerase ribozyme fitness (log ratio)” value is at most -4.2. With C79A C93A U146C the figure was at most -4.2; with C79G C103U G141A, at most -4.2; with C75G A89G U104C C105G A150C, at most -4.2. With U77A U78A C85G C93G C125U A137G the figure was at most -4.2; with C79U A98G, -3.44; with U77G G84C U148G, at most -4.2. With C75G C93A A113U A142G the figure was -4.17. U77G C85G G136C A137G G143A U146G: the “polymerase ribozyme fitness (log ratio)” value was at most -4.2. For C79A C96G, the “polymerase ribozyme fitness (log ratio)” value is at most -4.2. The same measure for C79U A91C: -4.02; for C75U U78A G83C A107U C116U C118U: at most -4.2; for C79G A89C: at most -4.2. With C79G C105U G128U the figure was at most -4.2; with C76A A122U, 0.592. With C75G U82C C85G G88A C93U A121U A122U the figure was at most -4.2; with C75U C99U, -2.07; with C76A C93U C105G C131U, at most -4.2. With U77C C87G G88A A121C G141A, the “polymerase ribozyme fitness (log ratio)” value is at most -4.2. With C79G C87U G100U the figure was -2.91; with U77C C85G C116U G143C, at most -4.2; with C79G U82A U101A A110G, at most -4.2. Turning to C76U C79U G83U G94A C105U C118G C132G G136A, the “polymerase ribozyme fitness (log ratio)” value was at most -4.2. With C76U C87U C116A A122U U146G the figure was -3.7; with C75G A97U G140A, at most -4.2. For C75U C96A G128U, the “polymerase ribozyme fitness (log ratio)” value is -3.56.

As to U78G G94U, the “polymerase ribozyme fitness (log ratio)” value was -3.47.

As for U78G C85U C125U, the “polymerase ribozyme fitness (log ratio)” value is at most -4.2. The same measure for C75A U139C U146A: at most -4.2. With U77G A89U C95A C114U C125G the figure was at most -4.2. With C79A G84A G92C A107G the figure was at most -4.2; with U77G G94A G100A A106C G136C G140C, at most -4.2. Regarding C75U C95G C96G, the “polymerase ribozyme fitness (log ratio)” value is -3.09. The same measure for C79G G84U: at most -4.2; for C75G G88A A120U: at most -4.2; for U78G C123G: at most -4.2. With C76G U78C C93U C103G A137G the figure was at most -4.2.

For the variant C79U C85G C105G, the “polymerase ribozyme fitness (log ratio)” value was at most -4.2. With C79A U139C A142G U148A the figure was at most -4.2.
